The list shows a part of the results. At the low end of the ranking the order means little. Measured with an extract: partners may take part in the binding.

The assay addresses T1, HNF4alpha2 (COS-7 nuclear extract) (UniProt P41235).
T1 sequence: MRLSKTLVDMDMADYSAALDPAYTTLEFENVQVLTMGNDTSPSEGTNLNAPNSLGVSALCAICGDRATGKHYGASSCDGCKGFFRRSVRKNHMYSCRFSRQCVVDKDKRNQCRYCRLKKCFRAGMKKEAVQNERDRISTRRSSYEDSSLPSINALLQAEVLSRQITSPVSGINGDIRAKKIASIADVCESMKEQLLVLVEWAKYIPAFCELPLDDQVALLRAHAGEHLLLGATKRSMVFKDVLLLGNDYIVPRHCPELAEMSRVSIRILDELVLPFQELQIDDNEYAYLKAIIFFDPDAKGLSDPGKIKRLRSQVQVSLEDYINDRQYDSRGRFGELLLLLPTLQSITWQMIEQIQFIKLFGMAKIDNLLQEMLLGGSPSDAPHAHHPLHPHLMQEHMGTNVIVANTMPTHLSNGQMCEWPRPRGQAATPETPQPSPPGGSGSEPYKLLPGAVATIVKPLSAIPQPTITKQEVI
The assay can be described thus: protein-binding microarray. Particulars: COS-7 nuclear extract on double-stranded Agilent 4x180k PBM; binding buffer, salt, pH and temperature not given; high values mean tight binding; double strand, one strand shown; sequences stand for … in …GCCTAGGGAGATTAGAGTATCGGTCGA
CCACTCAGTCTCTTGAAATCCCAAGCAGTG: the binding signal (log2 normalized intensity) was -1.09. The same measure for CTGAATCCAAAGGTCAATGCCAGGACCCTG: 4.42; for TGGGAGAGCACTTGGTGCCTCTGAGCTAAG: -1.18; for GGAGTTTCCTGCCTGGTCCGCCCTTCCCCG: 1.84. The same measure for GAACTGACAAGCAGTGACCAAGGGTCAGTT: 3.77. Consider ATCCCCAGCCACGCTCCTCTTATCATTAGA, for which the binding signal (log2 normalized intensity) turned out to be 1.22. The same measure for GGGGCGGGGGTTGCAAGTCTGAGGCTGCTC: -1.18; for TTGGTGTAACTCTGGGTCTGAGACCAAAGT: 1.59; for GAAAAAAGCCAATCTCTCAAATCTAGCCAA: -1.17.

For the sequence GGTCTGTAGAAGGCGCTGTGAAGCACATCC, the binding signal (log2 normalized intensity) was -1.07. Next, AGGGAAAAAATAATCAGCTTAAGCATACAG: -0.995; ACAACATTGAAAGCGATCTTTGCATTCCCA: -0.794. The same measure for ATTCTTAGACACAGTCTGAGATAGAAGGTC: 0.907. The same measure for AGGAGAAAGACCCTAAACCTGTTGGGTCAG: -1.13; for TTTGATCAAAGGTCAGCTCTCCTTTGTCTT: 4.1; for TATTCAGAGTTAGCTAAGCTTCACTGACAT: -1.09. Take GTTCAAATTCCAGCTTCCCCACTTATTACC: the binding signal (log2 normalized intensity) was found to be 2.08. The same measure for GGTGTTCCTCAGCCTTGAATTGGCATGAGA: 0.5; for GAGGGGCAGGCTTAGCTGGGCTAGCACCTG: -1.03. With GAGAAGTGATAAATTGGCCAAAGGTGAAGG, the binding signal (log2 normalized intensity) came to 1.78.

On to ATAAGCCTGAATTCTGGAAGGACTGTCTTT, for which the binding signal (log2 normalized intensity) worked out at 0.351. Consider AACTGCTATTGGTTGTCAGACTGGTGTAGT, for which the binding signal (log2 normalized intensity) stood at 1.95.

Take TCAGCTGCCTAGAGGCCTGGGAATGCCTAG: the binding signal (log2 normalized intensity) was -0.931. On to TATCAGGCAGGATATTCCAAAAGGGCAGCA, for which the binding signal (log2 normalized intensity) turned out to be 0.153.

With CTAGTACTCCTGCCCCTGTGCAATACTTTC, the binding signal (log2 normalized intensity) was determined as 2.48.

In the case of TTGCACTGCTGGTTTTTGTCAAAGATAGTT, the binding signal (log2 normalized intensity) came to 1.49. The same measure for GGTGGATACTTTGACTGAGACTGCCTCAAA: -1.09; for CAGCTTCCCCACTTATTACCGGTGTGACTT: 2.01; for TCAGGCCGTGGTGTATGATGACGCCACGCC: -1.15. Next, ACGCTGCTAATCCTACTTTATCTAAGTAAA: -0.953; TTTCCATCGCCCTTATCAGAAGGAAAGTCT: 1.02; CGAAGATAACCTACTTAAAAAGAAATAGCC: -1.06. The same measure for TGTATGTGGCAGGCACTTAGCAAATATTTA: -0.293; for AAAAGAGAGAGAATGTCCTCCCTGAGTCAG: -1.15; for ACTATTTACTTAATCCCTTGGAATGTCCTT: 1.41. As to CCCCTCTCTACTGGTAAGCAAATATTTGAA, the binding signal (log2 normalized intensity) amounted to 2.43. The same measure for TGCTCTGGACATACCTCTAATCATAAAGCT: -1.11; for TGGTAGGATTGTTTGGGGATTACACTAGAT: -1.01. Regarding TCCACAGTGCACATTCCAGAGAAATAGTGA, the binding signal (log2 normalized intensity) is -0.955. Consider TGGACCTCATTAATAGGGCAAGAGCTCAGA, for which the binding signal (log2 normalized intensity) was -1.13. In the case of CCTTCCCTCTGTCTTCAAAACCACACCCCT, the binding signal (log2 normalized intensity) was found to be 4.32. The same measure for CTGGAGCAAAGGTCACTCTTGCTATGCCTT: 4.82. The same measure for AAGGTGTCAGGACCTTTCTTTATGGACCTT: 3.94; for AAGACATGAAAAGTGGAATGCGCTTTCATG: -1.09.

Take ATTGGAATGAGCCTCCTGAAGATCCCCTGT: the binding signal (log2 normalized intensity) was 2.41. Next, CCCATCACTACTCCAGGGAGAAACCTGCCA: -1.08; GGAAGCTGGGCAGGCGCCGACTGCCAGGAG: -1.18. With GGCATTCTGACCTTTGTCTCCAGGCAAACT, the binding signal (log2 normalized intensity) came to 4.88. The same measure for GGCTTGAGCAGCTGGTGGAGGCGGTGCCAT: -0.801. Consider GTCTGAGATATCTTTCTCTATAGTAATCTT, for which the binding signal (log2 normalized intensity) was determined as 0.563. The same measure for CTCAGCACATGGCAGTGTACACTAGCCAAA: -1.27; for ATGTTGGGCAACTACCTCAAAGTTTTGTTA: 0.0615; for GGGTCTAGGTTGGAGGAGCTGAACTGTAAC: 1.12.

CTAATAAATGATTCATTCAGCAAATATTGA: the binding signal (log2 normalized intensity) was -1.07. Regarding GCTGTGCCGAGCCTGCAGGTGAATGGAAAC, the binding signal (log2 normalized intensity) was -0.549. The same measure for CTTAAGAACGCTTGTGATTACACTGGGCTC: -1.17. Regarding TGTGTTCTTGTTTGCTAAGTGAGAACACCG, the binding signal (log2 normalized intensity) was -1.12. The same measure for GCTGTTAAATGGAGTGGAATTTGGAGAGAA: 0.581. The same measure for GGTTCTCAGCTGACATTGGTGGAATCTGAA: 1.13; for AAGAGATTTCCTGCAGGTGGTGACCCCAGA: 4.42. The same measure for GTGTAATGGTTAGCACTCTGGACTCTGAAT: 3.08. With CTGGGACTTGCCTTTGTCCATTCACTTCCC, the binding signal (log2 normalized intensity) is -0.128. Next, GCTGCAGCTGGGCTATACAATTCCAGCAAG: -1.27. In the case of ATACGTTTAACAGTTCCTCCTGGAATCTGG, the binding signal (log2 normalized intensity) came out at 1.46. The same measure for TCCGTTAACAGCGGCATTCCTGTCAAAATC: -1.11; for CAGCCTAACAGGATTTTTGCTGAAGACAGG: -0.615. As to TGGGGCCAAAAAATTCCAGGCACAGTTACT, the binding signal (log2 normalized intensity) is -1.16.

For the sequence CCATCGAATTCTTGTCCAACTCCCCTCCCA, the binding signal (log2 normalized intensity) came out at 4.05. The same measure for AACAAATTGAGAAAGATTAAGAGGCTACAA: -1.1; for TGGTACTATGACCTTTCACCTTTTAGCTTG: 5.81; for CCTGCCTCTCCTCTGAGCTTCATCCTGACC: 1.62. For the sequence TGAATTTTATCACTCCATCAAGGGGATTAG, the binding signal (log2 normalized intensity) was -1.05. As for TGTTTTCAATGACTACCTGTTACCCACCTG, the binding signal (log2 normalized intensity) was determined as 0.766.
